# Data taken from paper PMC4336329 (PLoS ONE, 2015).
# In all, about 310,000 compounds went through this assay and about 2,200 (0.71%) showed an effect of 50% or more. Effects have a minus sign here. This is one part of the list.
# Biological target: human ether-à-go-go-related gene (hERG) potassium channel (human, UniProt Q12809)
# Test: primary screen, population patch clamp on CHO cells stably expressing hERG
# Sequence of human ether-à-go-go-related gene (hERG) potassium channel (Q12809 whole entry, looked up): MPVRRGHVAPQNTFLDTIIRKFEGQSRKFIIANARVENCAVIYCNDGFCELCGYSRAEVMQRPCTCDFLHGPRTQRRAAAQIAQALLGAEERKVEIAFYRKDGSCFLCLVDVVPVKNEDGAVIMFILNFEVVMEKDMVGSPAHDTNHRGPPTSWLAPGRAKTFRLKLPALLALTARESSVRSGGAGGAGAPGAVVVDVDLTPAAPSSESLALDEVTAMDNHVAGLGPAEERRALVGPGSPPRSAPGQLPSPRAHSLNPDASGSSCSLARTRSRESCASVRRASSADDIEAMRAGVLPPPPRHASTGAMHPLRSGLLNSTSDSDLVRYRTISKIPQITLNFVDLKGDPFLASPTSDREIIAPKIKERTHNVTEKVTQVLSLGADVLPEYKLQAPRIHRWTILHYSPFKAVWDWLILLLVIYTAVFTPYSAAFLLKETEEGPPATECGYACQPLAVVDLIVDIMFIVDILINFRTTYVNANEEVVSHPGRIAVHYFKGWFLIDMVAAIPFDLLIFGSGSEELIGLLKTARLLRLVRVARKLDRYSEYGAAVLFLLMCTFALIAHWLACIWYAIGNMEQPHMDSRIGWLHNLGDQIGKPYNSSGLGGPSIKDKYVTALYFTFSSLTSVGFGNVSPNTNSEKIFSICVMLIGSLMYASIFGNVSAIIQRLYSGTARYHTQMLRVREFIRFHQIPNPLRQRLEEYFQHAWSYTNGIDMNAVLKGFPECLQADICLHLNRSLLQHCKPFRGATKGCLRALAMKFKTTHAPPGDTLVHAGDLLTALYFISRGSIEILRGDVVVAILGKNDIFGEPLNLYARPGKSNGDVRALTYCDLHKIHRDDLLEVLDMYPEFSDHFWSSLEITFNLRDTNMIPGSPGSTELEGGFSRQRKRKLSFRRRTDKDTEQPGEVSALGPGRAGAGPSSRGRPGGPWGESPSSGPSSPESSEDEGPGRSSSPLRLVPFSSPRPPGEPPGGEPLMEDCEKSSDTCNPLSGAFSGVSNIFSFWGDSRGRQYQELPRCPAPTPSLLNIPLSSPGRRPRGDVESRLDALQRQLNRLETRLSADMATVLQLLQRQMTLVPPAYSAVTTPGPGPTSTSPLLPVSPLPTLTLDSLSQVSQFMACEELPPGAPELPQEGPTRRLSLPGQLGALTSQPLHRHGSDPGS
row,SMILES,"hERG current change (%, negative = inhibition) at 1uM"
1,CCn1cc(CNC(=S)Nc2cccc3ccccc23)cn1,9.87%
2,CC(C)c1ccccc1NC(=O)Cn1c(/C=C/c2ccccc2)nc2ccccc21,20.2%
3,O=C(NC1CCCC1)c1csc2c1CCCC2,3.44%
4,Cc1ccc(-c2cc(C(=O)O)n[nH]2)s1,10.6%
5,Cc1cc(OCCOCCN(C)C)ccc1Cl.O=C(O)C(=O)O,19.4%
6,Cc1ccc(-n2cc(C(=O)c3ccc4ccccc4c3O)cn2)cc1,8.89%
7,O=C(CC1C(=O)CCCC1=O)c1ccccc1,1.75%
8,COc1cccc2c1OCC(C(=O)Nc1nccs1)=C2,1.63%
9,O=C(NCCc1ccc(Cl)cc1)C1CCC(CNc2nc(=S)[nH]c3ccccc23)CC1 (centres unmarked),-1.29%
10,CC(C)(C)NC(=O)c1ccccc1NC(=O)C1CC(=O)N(C2CCCCC2)C1 (centres unmarked),5.02%
11,O=[N+]([O-])c1ccc(CN2CCN(c3nc4ccccc4s3)CC2)cc1,11.8%
12,N/C(Cc1cccc2ccccc12)=N\OC(=O)c1ccc2c(c1)OCO2,7.26%
13,O=C(c1ccco1)N1CCN(CCCCN2C(=O)c3ccccc3C2=O)CC1,-18.8%
14,COc1ccc(-n2nc(C(=O)NCC(=O)N3CC(C)CC(C)C3)c3ccccc3c2=O)cc1 (centres unmarked),16%
15,C/C(=N\Nc1nc2ccccc2[nH]1)c1ccc([N+](=O)[O-])cc1,14.9%
16,CCOC(=O)N1CCN(C(=O)CS(=O)(=O)c2cn(Cc3ccc(Cl)cc3)c3ccccc23)CC1,8.44%
17,COc1cc(C(=O)NCC2CCCO2)ccc1OCc1ccc(Cl)cc1 (centres unmarked),8.94%
18,Cc1sc2nc(C(C)(C)C)oc(=O)c2c1C,3.6%
19,Cc1cc(-n2c(C)cc(C(=O)CN3C(=O)NC4(CCCCCC4)C3=O)c2C)no1,5.71%
20,Cc1cccc2c1cnn2C(=O)Nc1cc(F)ccc1F,14.5%
21,CCOC(=O)NCN1C(=O)C2C3C=CC(C3)C2C1=O (centres unmarked),7.02%
22,CCCNC(=O)CS(=O)Cc1nc(-c2ccccc2C)oc1C (centres unmarked),8.51%

row,SMILES,"hERG current change (%, negative = inhibition) at 1uM"
1,Cc1ccc(S(=O)(=O)CCC(=O)OCc2ccccc2)cc1,13.3%
2,Cc1nn(C(C)C(=O)NCCc2ccco2)c(=O)c2nn(-c3ccccc3)c(C)c12 (centres unmarked),10.2%
3,CCc1ccc(OCC(O)CN2CCCC2)cc1.Cl (centres unmarked),3.86%
4,O=C(OCC(=O)N1CCCC1)c1cccs1,11.7%
5,Cc1ccccc1NC(=O)CCN1CCc2ccccc2C1,6.54%
6,O=C(CN1C(=O)c2cccc3cccc1c23)NCc1ccc2c(c1)OCO2,-8.16%
7,CCc1nc(C(N)=O)c2[nH]c(=O)n(-c3ccc(OC)cc3OC)c2n1,16.3%
8,Cc1ccc(C(C[N+](=O)[O-])c2c(C)[nH]n(-c3ccccc3)c2=O)cc1 (centres unmarked),2.55%
9,O=C(Nc1ccc(-c2cnco2)cc1)c1ccccc1,11.3%
10,O=C(Nc1ccc(Oc2ccc(NC(=O)C3CCCO3)cc2)cc1)C1CCCO1 (centres unmarked),18.2%
11,CC(C)(C)OC(=O)NN1CC(=O)N2Cc3[nH]c4ccccc4c3C[C@H]2C1=O,-0.719%
12,CCS(=O)(=O)n1nc(-c2ccc(Cl)cc2)nc1SCc1ccccc1,5.88%
13,CCC(=O)N1c2ccc(S(=O)(=O)N3CCCCC3)cc2CC1C (centres unmarked),17.7%
14,O=C(O)C(CO)N=Cc1c(O)c2ccccc2oc1=O (centres unmarked),1.59%
15,COc1ccc(Cc2nc(N)nc(N)n2)cc1,11%
16,CC(=O)c1ccc(N2CCN(S(=O)(=O)c3c(C(=O)N4CCCCC4)c(C)n(C)c3C)CC2)cc1,6.66%
17,COc1ccc2oc(C(=O)OCC(=O)NCc3ccccc3OC)c(C)c2c1,15.4%
18,COc1cc(CNCc2cccs2)ccc1OCC(=O)NC(C)(C)C.Cl,2.38%
19,O=P(c1ccccc1)(c1ccccc1)C(c1ccccn1)P(=O)(c1ccccc1)c1ccccc1,8.21%
20,CCc1ccccc1N1C(=O)CN(Cc2cc(OC)c(OC)c(OC)c2)C1=S,10.3%
21,Cn1c(SCC(=O)NC(=O)CN2CCCC2=O)nnc1-c1ccc(F)cc1,6.51%
22,CC(C)NC(=O)CSc1nnc(-c2ccco2)n1N,10.6%
